In the supplement of paper PMC11417369:
The list shows a part of the results.

system: PfSIP2 AP2 domain 1 (GST-tagged); experiment: gcPBM binding intensity (ln(normalized median fluorescence intensity)); higher = stronger DNA binding
Method in brief: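 After 1 h on an Agilent 4 × 180k array of primer-extended double-stranded 36-bp intergenic genomic probes and negative controls, bound GST-tagged P. falciparum DNA-binding domains were detected with Alexa488 anti-GST antibody and scanned at 488 nm. The domains had been expressed in E. coli, and binding took place in 1× PBS with 1% milk, 0.2 mg/ml BSA, 0.5% salmon testes DNA and 0.03% Triton X-100. Binding intensity is the highest Masliner-normalised natural-log median intensity across replicate spots of either probe orientation.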

Row | Sequence | gcPBM binding intensity (ln)
1 | AGAAAGGAGGAAATAAAAGGACTTCTTTTTTTATAT [CACACA_negctrl_site810] | 6.69
2 | ATTCATATCTACTTCACACACATTTGATCATTCAAA [CACACA_site7207] | 7.28
3 | ATAGTATTTTTTATTACACACAAATAAAAAGAAAAA [CACACA_site2087] | 7.23
4 | ATGAAACAGTAACATTGTACTTTTACAAAAAAATAA [XGTACX_site806] | 6.75
5 | AAAATCTATATTAACACACACACAAAAAAAAAAAAA [CACACA_site6738] | 7
6 | ATCTTTCGTACATGTACACACAGAAAAAAAAAAAAA [CACACA_site2502] | 7.31
7 | GTTCCCATAAATAAATGTACATATTATATATATATA [XGTACX_site3242] | 8.94
8 | GTGTAATCATATAAGGGTACAAAAAATGTCTAACAA [XGTACX_site8122] | 7.12
9 | TTTCATTTCACAGACACACACACACCCTATATTTCC [CACACA_site3906] | 7.1
10 | ATATATTTTATATAGTGTACTTTAATTTTTTTTTTT [XGTACX_site5550] | 6.83
11 | ATTTTTTTTTTTTTTGAACACACATTATTAATTTTT [CACACA_site7990] | 6.89
12 | ATAAATAAAACAAAATGTACAAATATTCATATATTC [XGTACX_site1307] | 6.87
13 | ATATATATATATGTTAGTACTTATATTGAAATGGTA [XGTACX_site1406] | 9.45
14 | TTATTTACCTATTATAGTACATATAATTAATATAAT [XGTACX_site5724] | 7.22
15 | TTTCGAATTAAAGCATGTGAAAATTTTCAAAAAATA [XGTACX_negctrl_site577] | 6.93
16 | GAATCACTAATTTTTTTACACACCACAATTTAATTT [CACACA_site8311] | 7.26
17 | ACAAAACATAATTGTTGTACAAAAAGAATTATATAT [XGTACX_site8422] | 7.2
18 | ATAATAATATAATATTCACACAATTGAAATAGTGTA [CACACA_site6083] | 6.84
19 | AAATAAAAATTACAAGCATGCATTTTCCTATTTGCA [TGCATGCA_site861] | 6.43
20 | GTGTAAAAATTAAAGTGTACACATATATATATATAT [XGTACX_site2251] | 9.87
21 | AAAAAATTTTGAAATTGTACATATATAAAAAATATA [XGTACX_site2629] | 6.91
22 | TTTAAATATATTAATACACACACGATATGTACAAAA [CACACA_site539] | 7.02
23 | GAATAAATTGTATTGTGTACATATAAAAGCATCTAA [XGTACX_site8271] | 7.13

Row | Sequence | gcPBM binding intensity (ln)
24 | TATAAATATACAAAGGTGCATAAAAAGTTATGTTTT [GTGCAC_site9832] | 10.4
25 | TTTCTATAATATTCTACACACCAACAACAAACATAT [CACACA_site6409] | 7.38
26 | GGTCTTTTTATGATATGTACTTATATAATATTATAT [XGTACX_site6458] | 7.8
27 | ATGTAGAAGTAATGCACACATATGTATATATATATA [CACACA_site2494] | 9.37
28 | AACAGCATGAAGTAAAGTACTAGTTTTATTTATTTA [XGTACX_site1116] | 6.73
29 | AGGAAATTTTTTTTTTTTTTTTTTTTTTTTTTTTAC [TGCATGCA_negctrl_site170] | 6.81
30 | ATAATATATAATATAGTGCATTATTTATTAATTAAT [GTGCAC_site9852] | 10.1
31 | TCCTAATGGTTTAATTGTACAAAAAAAAAAAATATA [XGTACX_site322] | 7.05
32 | TGATAAGTATACTAAAGTACATGAAAAATAACTTCC [XGTACX_site6908] | 6.87
33 | TGATTATAAAAGTAGGTGCTACAAAAATTACACATT [GTGCAC_site9530] | 7.65
34 | ATAGATGTCTTCATATGTACATAAATTCAAGTATAT [XGTACX_site7492] | 7.02
35 | CAAAATATTATGAATTGTACATATTTTAAAACGTTT [XGTACX_site1614] | 6.86
36 | TTATATTTTAAGAAATGTACATGATATAATTATCAA [XGTACX_site8693] | 6.95
37 | TGGATGAGGACATACACACACACATAAGTTGATACA [CACACA_site3423] | 7.06
38 | TATTTCTTATGAAGGACATGCAATATTATTTATCTC [TGCATGCA_site683] | 6.75
39 | AATGAAAAGGAACATACACACCCCATATAAATATAT [CACACA_site7588] | 7.2
40 | TTTTTTTTAATTTTCTGTACAAATTTATATATACTA [XGTACX_site4251] | 6.91
41 | TGATATAAAATTAAAGTGCAAAAAAAAAATAAAAAA | 8.36
42 | ATAATATTATGAACCTGTACATAATTTTTCTTTTCT [XGTACX_site3377] | 6.78
43 | TATAATTTTTTTGAATTATATATATATATATATAAT [XGTACX_negctrl_site26] | 7.48
44 | AGTATATTTCTAACTTGTACGAAATTAATAATTTAT [XGTACX_site6635] | 6.92
45 | TATATATAATATGAATGTACACAAAAAGGTAATACA [XGTACX_site6202] | 7.2
